Measured values from PMC4336329 (PLoS ONE, 2015).
About 14,000 (4.5%) of roughly 310,000 compounds showed an effect of 50% or more. The effect is printed as a negative number. The list shows a part of the results.

Biological target: human ether-à-go-go-related gene (hERG) potassium channel (human, UniProt Q12809)
Assay: primary screen, population patch clamp on CHO cells stably expressing hERG
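Note: peak tail current of the secondary pulse compared with the same well before compound.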

Sequence of human ether-à-go-go-related gene (hERG) potassium channel (Q12809 whole entry, looked up): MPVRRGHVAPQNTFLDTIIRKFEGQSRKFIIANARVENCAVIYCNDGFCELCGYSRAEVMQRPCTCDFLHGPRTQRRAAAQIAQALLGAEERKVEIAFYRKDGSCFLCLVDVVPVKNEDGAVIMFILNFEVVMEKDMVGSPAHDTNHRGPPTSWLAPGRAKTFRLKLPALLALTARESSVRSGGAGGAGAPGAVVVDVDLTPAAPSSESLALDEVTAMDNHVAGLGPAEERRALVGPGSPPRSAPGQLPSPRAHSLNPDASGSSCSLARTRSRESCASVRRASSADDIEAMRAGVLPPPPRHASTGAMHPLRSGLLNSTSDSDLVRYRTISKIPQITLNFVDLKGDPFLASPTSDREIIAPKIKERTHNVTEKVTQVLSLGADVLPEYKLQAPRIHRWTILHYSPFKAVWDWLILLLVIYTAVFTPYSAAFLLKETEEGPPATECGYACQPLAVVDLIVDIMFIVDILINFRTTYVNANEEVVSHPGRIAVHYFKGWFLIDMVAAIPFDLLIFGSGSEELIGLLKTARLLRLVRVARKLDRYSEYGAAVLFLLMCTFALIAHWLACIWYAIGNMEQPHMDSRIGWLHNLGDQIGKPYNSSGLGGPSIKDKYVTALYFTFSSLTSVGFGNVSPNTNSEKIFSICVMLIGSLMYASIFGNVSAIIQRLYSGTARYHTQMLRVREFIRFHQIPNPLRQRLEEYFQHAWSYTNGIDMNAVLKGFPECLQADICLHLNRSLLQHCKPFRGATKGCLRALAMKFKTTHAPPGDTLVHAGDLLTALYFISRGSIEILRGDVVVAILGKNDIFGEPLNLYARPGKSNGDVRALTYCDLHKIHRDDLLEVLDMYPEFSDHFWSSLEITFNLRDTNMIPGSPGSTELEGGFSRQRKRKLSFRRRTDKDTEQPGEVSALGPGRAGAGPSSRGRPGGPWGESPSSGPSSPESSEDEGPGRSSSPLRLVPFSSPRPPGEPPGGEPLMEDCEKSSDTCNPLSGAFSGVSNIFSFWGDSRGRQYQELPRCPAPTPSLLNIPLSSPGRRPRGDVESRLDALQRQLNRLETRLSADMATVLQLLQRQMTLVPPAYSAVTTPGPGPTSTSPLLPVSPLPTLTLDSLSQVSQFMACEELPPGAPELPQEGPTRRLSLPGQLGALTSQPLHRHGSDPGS

Row | SMILES | hERG current change (%, negative = inhibition) at 10uM
1 | O=c1[nH]c(=O)n(CCC2=CCCCC2)c(O)c1/C=N/Nc1ccccc1 | 14.8%
2 | CCOc1ccc2nc(CN3CCN(Cc4ccsc4)C(CCO)C3)ccc2c1 (centres unmarked) | -47%
3 | COc1ccccc1NS(=O)(=O)NC(=O)c1cn(C)c2ccccc12 | 16.8%
4 | O=C(c1cccc(C(F)(F)F)c1)C1CCCN(Cc2ccccc2O)C1 (centres unmarked) | -29%
5 | O=C(NC1CCCC1)c1ccc2nc(-c3ccco3)c(-c3ccco3)nc2c1 | -40.5%
6 | O=[N+]([O-])c1ccc(CS(=O)(=O)c2ncn[nH]2)cc1 | 20.9%
7 | CC(C)C(=O)N(Nc1nc2ccccc2s1)C(=O)C(C)C | -0.224%
8 | NC(=O)CSc1cn(CCNC(=O)c2cccs2)c2ccccc12 | 7.26%
9 | O=C(Nc1cccc(F)c1)NC1(C(=O)N2CCC(O)CC2)CCCCC1 | 16.2%
10 | Cc1csc(NC(=O)CCC(=O)N(CC(=O)NC2CCCC2)c2ccccc2)n1 | -3.43%
11 | CCc1ccc(S(=O)(=O)NC2CCCCNC2=O)cc1 (centres unmarked) | 6.65%
12 | CCc1ccc(N(CC(=O)Nc2ccccc2C(=O)N2CCOCC2)S(C)(=O)=O)cc1 | -10.1%
13 | CC(=O)c1ccc(S(=O)(=O)NC2CC(=O)N(c3ccc4c(c3)OCCO4)C2)cc1 (centres unmarked) | 5.79%
14 | CCOc1ccc(C(c2c(O)nc(SC)n(C)c2=O)c2c(O)nc(SC)n(C)c2=O)cc1 | -0.68%
15 | O=C(O)Cc1sc(Nc2ccccc2)nc1-c1cccs1 | 8.31%
16 | COc1ccc(OC)c(C2=CC(=O)C[C@H](c3ccc4c(c3)OCO4)C2)c1 | -10.6%
17 | Cc1ccc(NC(=O)CN2CCCCCC2)cc1[N+](=O)[O-] | 23.1%
18 | Cc1ccc(CONC(=O)c2ccc(OC(F)F)cc2)cc1 | -30.9%
19 | O=C(Nc1ccc(F)cc1)C1CCCN(S(=O)(=O)c2cccc3cccnc23)C1 (centres unmarked) | -49.3%
20 | O=C(NCc1ccco1)/C(=C/c1ccc(Cl)cc1)NC(=O)c1ccco1 | -14%
21 | OC(Cn1nnc2ccccc21)Cn1c(C(F)(F)F)nc2ccccc21 (centres unmarked) | -2.39%
22 | Cc1ccc(S(=O)(=O)Nc2cc(C)cn(Cc3ccc(F)cc3)c2=O)cc1 | -13.3%

Row | SMILES | hERG current change (%, negative = inhibition) at 10uM
23 | COc1ccc2[nH]c3c(c2c1)CCNC3(C)CCc1ccc(Cl)nc1 (centres unmarked) | -51.6%
24 | CCc1ccccc1NNC(=O)c1snnc1C | 7.88%
25 | COc1cc(C=O)ccc1OC(=O)N1CCOCC1 | 14.7%
26 | O=C(NCCc1ccccc1)c1ccc(CS(=O)(=O)c2ccc(Cl)cc2)o1 | -2.15%
27 | O=C(CCC1COc2ccccc2O1)NCc1ccccc1 (centres unmarked) | -13.9%
28 | CC(C)(C)C(=O)N1CCN(c2ccc([N+](=O)[O-])c(NCc3cccnc3)c2)CC1 | -29.3%
29 | O=C(NNc1ccccc1[N+](=O)[O-])Nc1ccc(Cl)c(Cl)c1 | 8.2%
30 | Nn1c(SCc2cccc(Br)c2)nnc1-c1ccncc1 | -16.5%
31 | O=C(NCc1ccccc1)/C(=C/c1ccc(OC(F)F)cc1)c1ccccc1 | 4.19%
32 | O=C1CC(c2ccccc2)C(C(=O)O)N1 (centres unmarked) | 16%
33 | Cc1cc(C(=O)N2CCc3c([nH]c4ccccc34)C2c2c(F)cccc2Cl)no1 (centres unmarked) | 5.46%
34 | C#CCOCOCC#CCN(CC)CC | 3.26%
35 | COc1cc2c(C(=O)N(C)c3cc(Cl)ccc3OC)cn(C)c(=O)c2cc1OC | 9.6%
36 | COc1cccc(CCc2nnc(CCC(=O)N3CCN(Cc4ccccn4)CC3)o2)c1 | 17%
37 | CCSc1nnc(NC(=O)c2csc(C)c2)s1 | -0.0426%
38 | Cc1ccc(S(=O)(=O)N2CCOCC2)cc1C(=O)N1C(=O)c2cccc(N)c2C1=O | -17.1%
39 | CCN(CC)C(=O)Oc1ccc(Br)cc1C(=O)Nc1ccc(F)cc1F | -2.5%
40 | O=C1CCc2cc(S(=O)(=O)Nc3ccccc3Cl)ccc2N1 | -5.94%
41 | Cc1c(O)ccc2c(CN(C)Cc3ccccc3)cc(=O)oc12 | 10.2%
42 | CN1CCOC(c2ccccc2)c2ccccc2C1.Cl (centres unmarked) | 3.33%
43 | Cc1oc(C(=O)Nc2ccc(C(=O)O)cc2)cc1COc1ccccc1 | -2.55%
44 | COC(=O)Nc1nn(-c2ccc(OC)cc2)c(=O)c(C#N)c1C | 4.53%

Row | SMILES | hERG current change (%, negative = inhibition) at 10uM
45 | CC(=O)c1cnc2cc(-c3ccccc3)nn2c1C | -5.79%
46 | O=[N+]([O-])c1ccc(-c2nc(=S)c3c(o2)CCCC3)cc1 | -6.53%
47 | N#Cc1nc(-c2ccc(Cl)cc2)oc1NCc1ccco1 | 16.7%
48 | O=C1NC(=O)N(c2ccccc2F)C(=O)/C1=C/c1ccc(Sc2nc3ccccc3[nH]2)o1 | -4.03%
49 | C#CCOCCOCCOCCNc1nc(N2CCN(C(=O)Cn3cc(CC(C)O)nn3)CC2)nc(N2CCN(C(=O)[C@H]([C@@H](C)CC)n3cc(CCC[NH+]=C(N)N)nn3)CC2)n1.[Cl-] (some centres unmarked) | -0.406%
50 | CC(C)(C)c1ccc(-c2noc(CCC(=O)NCc3ccco3)n2)cc1 | -0.0396%
51 | CN(CC1CCCO1)S(=O)(=O)c1ccc(C(=O)Nc2nccs2)cc1 (centres unmarked) | -0.406%
52 | CC(NC(=O)C1CC1)C(c1cccs1)N1CCN(c2ccccc2)CC1 (centres unmarked) | -0.284%
53 | C=CCN(CC=C)C(=S)NC(=O)Cc1cccc2ccccc12 | -9.26%
54 | COC(=O)COc1ccc2c(=O)c(Oc3ccccc3Br)coc2c1 | 14%
55 | Cc1c(NS(=O)(=O)c2cccc(C(=O)OCC(=O)N(C)C3CCCCC3)c2)c(=O)n(-c2ccccc2)n1C | 4%
56 | Cl.O=C(NCCN1CCOCC1)c1ccc(Cl)c(S(=O)(=O)N2CCCCCC2)c1 | -40.1%
57 | O=C(CSc1ccc2c(c1)OCCO2)Nc1ccc(N2CCOCC2)cc1 | 15.1%
58 | CC(=O)NCCc1nc2cc(NC(=O)c3cccs3)ccc2n1C | 12%
59 | CC(C)=C1C2CCC1C1C(=O)N(c3nc(-c4ccc(C(C)C)cc4)c(C)s3)C(=O)C21 (centres unmarked) | -0.211%
60 | COC(=O)[C@H](Cc1c[nH]c2ccccc12)NC(=O)NCc1ccccc1 | 11.1%
61 | CCOc1ccc(N(CC(=O)Nc2ccc3c(c2)OCCO3)S(=O)(=O)c2c(C)noc2C)cc1 | 17.6%
62 | CCC1=C(C)C(N2CCOCC2)=NP(N2CCOCC2)(N2CCOCC2)=N1 | 8.02%
63 | CCn1nc(C(=O)Nc2nc3ccc(C)cc3s2)c2ccccc2c1=O | 8.07%
64 | COc1ccc(-c2noc(N3CCC(C(=O)Nc4ccc(OC)cc4OC)CC3)n2)cc1 | -9.62%
65 | Cc1ccccc1NC(=O)Cc1nc(COC(=O)c2ccc(S(C)(=O)=O)c([N+](=O)[O-])c2)cs1 | -1.06%
66 | Nc1nccnc1C(=O)OCC(=O)C12CC3CC(CC(C3)C1)C2 | -5.19%

Row | SMILES | hERG current change (%, negative = inhibition) at 10uM
67 | Cc1cc(C)c(S(=O)(=O)NCc2ccncc2)c(C)c1 | 5.13%
68 | N#Cc1ccc(S(=O)(=O)NC2CCN(Cc3ccccc3)CC2)cc1 | -31.8%
69 | COc1ccccc1Oc1coc2c(CN3CCOCC3)c(O)ccc2c1=O | -1.63%
70 | O=C(c1ccc2c(=O)n(CC3CCCO3)c(=S)[nH]c2c1)N1CCN(c2ccccc2)CC1 (centres unmarked) | -1.95%
71 | O=C(Nc1ccc(N2CCOCC2)cc1)C1CCCCC1 | 4.44%
72 | CCN1CCN(C(=O)C2CCCN(S(=O)(=O)c3cc(Cl)ccc3Cl)C2)CC1 (centres unmarked) | -41%
73 | CC1(C(=O)O)CCC(C(=O)Nc2cccc(F)c2)C1(C)C (centres unmarked) | 4.5%
74 | O=C(O)c1ccc(Cl)cc1Nc1nc2cc(Cl)ccc2o1 | 22.5%
75 | Cc1ncc([N+](=O)[O-])n1CCOC(=O)c1ccc(Cl)cc1Cl | -20.2%
76 | CC1(C)Cc2c(c(N3CCCC3)nc3sc4c(N5CCNCC5)ncnc4c23)CO1 | -35.2%
77 | NC(=O)C1CCCN(Cc2ccc(Cl)cc2)C1 (centres unmarked) | 0.421%
78 | COc1ccc(NC(=O)c2noc(C(C)C)c2[N+](=O)[O-])cc1 | 6.44%
79 | COc1ccc(Cn2c(N)c(C(=O)NCc3ccco3)c3nc4ccccc4nc32)cc1OC | 7.14%
80 | COc1ccc(OC)c(CN2CCN(S(=O)(=O)c3ccccc3)CC2)c1 | -79.2%
81 | O=C(COC(=O)CCC(=O)c1cccs1)NCc1ccc(Cl)cc1 | 0.0834%
82 | O=C(CSc1nccn1Cc1ccc(F)cc1)NC1CCCC1 | -0.2%
83 | COCCNC(=O)C(c1ccc(O)cc1)N(Cc1ccco1)C(=O)CCC(=O)Nc1ccccn1 (centres unmarked) | 23.8%
84 | COc1ccc(-n2nc(C(=O)N3CCC(N4CCCCC4)CC3)c3c4ccccc4n(C)c3c2=O)cc1 | 7.1%
85 | Cc1ccc(NC(=O)CSc2nnnn2C)cc1S(=O)(=O)N(C)C | 5.34%
86 | CC(C)(C)CC(=O)Nc1nnc(SCC(=O)N2CCCCC2)s1 | 1.31%
